Laboratory results from PubChem BioAssay AID652104 (National Center for Advancing Translational Sciences (NCATS), 2013).
The campaign covered roughly 410,000 compounds. About 7,200 (1.8%) were called active. The inconclusive results got no clear call from the source; some entries with a clear call stand among them for comparison. The call rests on the fitted dose curve; in most records, active means well fitted activation curve with a large enough effect; inconclusive means small, poorly fitted or top-dose-only effect, or another doubt; inactive means no such curve, though single readings can be large or run the other way. No potency is given beside an inconclusive call; the fits are too rough.

assay: qHTS of TDP-43 Inhibitors; conditions: TDP-43 expressing yeast growth rescue, BacTiter-Glo, 24 h; growth rescue (activation): at 46.1 µM (top of the series) unless noted; further: nearly all actives have a fitted effect of over 50% in size; on growth rescue (activation): % of control where 0% means no effect
Outline: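 Luminescence from BacTiter-Glo reports growth of TDP-43-expressing yeast after 24 hr at 30 deg C with compound. Cells were raffinose-pregrown to mid-log, then seeded in galactose medium at OD600=0.02.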
Potency means the concentration at half of the fitted maximal effect; tags describe the fitted curve by direction and shape.

Row | Structure (SMILES) | Potency | growth rescue (activation)
1 | CCc1cc(-c2onc(C)c2-c2cscn2)c(O)cc1OC | active: 17.8 µM | –
2 | O=C(c1cc(-c2ccccc2Cl)nc2ccccc12)N1CCN(c2ccccn2)CC1 | inconclusive [activator, partial curve] | –
3 | COc1cccc(CNC(=O)COc2ccc(C(=O)c3ccccc3)cc2)c1 | active: 35.5 µM | –
4 | OC(c1cccc(CN2CCCCC2)c1)c1ncc(-c2ccccc2Cl)[nH]1 (stereo not drawn) | inconclusive [activator, partial curve] | –
5 | COc1cc(NS(=O)(=O)c2ccc(C)cc2)c2c(c1N)C(=O)c1ccccc1C2=O | inconclusive [activator, partial curve, poor fit] | –
6 | Cc1cccc(NC(=S)NC(=O)Cc2ccccc2)c1C | inconclusive [activator, single point] | –
7 | Cc1ccc(-n2c(-c3ccccc3)n[nH]c2=S)c(C)c1 | inconclusive [activator, single point] | –
8 | O=[N+]([O-])c1ccc(C=NN2CCOCC2)s1 | active: 11.2 µM | –
9 | Cc1ccc(-c2nc(N)sc2-c2ccccc2)cc1C | active: 15.8 µM | –
10 | CC(C)c1cc(C(=O)N2CCCC(C(=O)c3ccc4ccccc4c3)C2)on1 (stereo not drawn) | inconclusive [activator, single point] | –
11 | COCCN(C(=O)CSc1nnc(C)n1Cc1ccccc1)c1c(N)n(CC(C)C)c(=O)[nH]c1=O | – | inactive: 17.6% [at 9.22 µM]
12 | CCOc1cccc(-c2nn3c(-c4ccccn4)nnc3s2)c1 | inconclusive [activator, single point] | –
13 | COc1ccc(-c2cc(-c3nnc(COC(=O)c4ccncc4)o3)c3ccccc3n2)cc1OC | inconclusive [activator, partial curve, poor fit] | –
14 | COc1ccc(/C=c2\s/c(=C(/C#N)C(=O)NCc3ccco3)n(-c3ccccc3)c2=O)cc1 | inconclusive [activator, partial curve] | –
15 | CCC1(c2ccccc2)C(=O)NCNC1=O | inconclusive [activator, full curve] | –
16 | Cc1ccc(S(=O)(=O)CCC(=O)c2ccc(O)cc2O)cc1 | active: 14.1 µM | –
17 | O=C(Nc1sc2c(c1C(=O)NC1CCCCC1)CCC2)c1ccco1 | inactive | –
18 | COCCCNc1ccn2nc(-c3ccc(CC(C)C)cc3)cc2n1 | active: 17.8 µM | –
19 | COc1ccc2oc(C(=O)OCC(=O)N3CC(C)CC(C)C3)c(C)c2c1 (stereo not drawn) | inconclusive [activator, single point] | –
20 | C=CCOc1ccc(/C=C/C(=O)OCC(=O)NCCC2=CCCCC2)cc1 | inconclusive [activator, full curve] | –
21 | Nc1c(-c2nc(-c3ccc(Cl)cc3)no2)nnn1-c1ccc(C(F)(F)F)c(Cl)c1 | inactive | –
22 | Cc1ccc2nc(N3CCN(C(=O)c4ccc(F)cc4)CC3)c(C#N)cc2c1 | inconclusive [activator, single point] | –

Row | Structure (SMILES) | Potency | growth rescue (activation)
23 | CCOCCCNC(=O)c1c[nH]c2ccc(S(=O)(=O)Nc3cccc(Cl)c3C)cc2c1=O | inconclusive [activator, single point] | –
24 | CC(C)C(=O)Nc1cccc(-c2csc(-c3ccccc3)n2)c1 | inconclusive [activator, partial curve] | –
25 | C=CCn1c(SCc2ccc(C#N)cc2)nnc1-c1cccc(OC)c1 | inconclusive [activator, partial curve] | –
26 | Fc1ccc(Nc2ncnc3c2nc2n3CCCC2)cc1 | inconclusive [activator, single point] | –
27 | COc1ccccc1CNC(=O)c1ccc(CN2CC(=O)N3CCCCC3C2=O)cc1 (stereo not drawn) | inactive | –
28 | CC(=O)Oc1cc2oc(=O)c3c(c2cc1Cl)CCC3 | inconclusive [activator, single point] | –
29 | O=C(CCCN1C(=O)NC2(CCCC2)C1=O)Nc1ccc(Cl)c(S(=O)(=O)N2CCOCC2)c1 | inconclusive [activator, partial curve] | –
30 | Cc1ccc(SCC(=O)NC(C)c2ccccc2)cc1 (stereo not drawn) | inconclusive [activator, partial curve] | –
31 | CC1(C(=O)O)CCCN(C(=O)c2cc3ccccc3s2)C1 (stereo not drawn) | inconclusive [activator, partial curve] | –
32 | Cc1ccccc1NC(=O)c1sc2nc(N3CCOCC3)c3c(c2c1N)CCCC3 | inconclusive [activator, partial curve] | –
33 | CCCc1cc(O)c2c(C)cc(=O)oc2c1 | inconclusive [activator, single point] | –
34 | CCc1c(C)nc2ccc(Br)cc2c1SCCC#N | inconclusive [activator, single point] | –
35 | Cc1ccc(NC(=O)NNc2cccc(Cl)n2)cc1 | inconclusive [activator, single point] | –
36 | O=C(Nc1nnc(-c2ccc3c(c2)OCCO3)o1)c1ccc(Cc2ccccc2)cc1 | inconclusive [activator, full curve, poor fit] | –
37 | CN(c1ccccc1)C(c1ccc(F)cc1)c1nnnn1CC1CCCO1 (stereo not drawn) | inconclusive [activator, partial curve] | –
38 | CCOc1ccc(CNC(=O)CCC(=O)N2CCSc3ccccc32)cc1 | inconclusive [activator, partial curve, poor fit] | –
39 | O=C1C=C(OCCCl)CC(c2cccc(Cl)c2)O1 (stereo not drawn) | inconclusive [activator, single point] | –
40 | COc1ccc(NC(=O)CSCC(=O)Nc2cc(Cl)ccc2N2CCOCC2)cc1 | inconclusive [activator, single point] | –
41 | Cc1ccc(CCNc2ncnc3onc(C)c23)cc1 | inconclusive [activator, full curve, poor fit] | –
42 | O=C(CSc1nc(-c2ccccc2)c(-c2ccccc2)o1)N1CCOCC1 | inactive | –
43 | CN(C)c1nc(OCCNC(=O)COc2ccc(Cl)cc2Cl)nc(N(C)C)n1 | active: 14.1 µM | –
